Some of the results follow. At the low end of the ranking the order means little.
Biological target: SIX1-Q177R homeodomain (UniProt Q15475)
Assay: universal protein binding microarray
Settings: Universal all-10-mer PBM (8x60K, AMADID 030236), 300 nM GST-tagged protein, Alexa Fluor 488 anti-GST; buffer, salt, pH and temperature not stated; high values mean tight binding; most listed sequences are background and not binding sites; double strand, one strand shown

Row | Sequence | binding signal
1 | CTATCGAA | 0.0406 E-score
2 | AACCATCC | -0.0661 E-score
3 | GAGGGTTA | 0.185 E-score
4 | AATCTTAC | -0.111 E-score
5 | ATCTTCCG | -0.0845 E-score
6 | AATGATGA | -0.224 E-score
7 | GAAGTAAA | -0.263 E-score
8 | CCCTCATA | 0.0592 E-score
9 | CTCAGAGA | 0.00128 E-score
10 | ACGTGCGC | -0.0827 E-score
11 | CAATGACG | 0.0239 E-score
12 | GACGTACC | -0.0822 E-score
13 | CGCGTCGC | 0.0318 E-score
14 | GCAGTTCC | -0.201 E-score
15 | CACGGCTA | 0.182 E-score
16 | CACAGGAA | 0.0158 E-score
17 | AGCGAGAC | -0.139 E-score
18 | ATCTCCGC | -0.024 E-score
19 | CGTTCGAC | -0.0176 E-score
20 | AAACCATC | 0.0425 E-score
21 | GTCACGGA | -0.00507 E-score
22 | CACTGATG | 0.106 E-score
23 | CACGACGG | 0.182 E-score
24 | GGGTAGAA | 0.105 E-score
25 | ACCACTGG | 0.153 E-score

Row | Sequence | binding signal
26 | CAGTAGGA | -0.186 E-score
27 | ACCTAAAC | 0.0688 E-score
28 | TATCGCCA | -0.0468 E-score
29 | GGTAACCA | 0.102 E-score
30 | ACGGTGCA | 0.293 E-score
31 | ATAGATAC | -0.0538 E-score
32 | GTACGGGA | 0.07 E-score
33 | CGAAGGCG | -0.103 E-score
34 | GGTGCCAC | 0.195 E-score
35 | CTGATCAC | 0.0105 E-score
36 | ATACCATC | 0.151 E-score
37 | ACCAAGAA | -0.0663 E-score
38 | CTAAGAAG | -0.00205 E-score
39 | TACACTGA | 0.394 E-score
40 | ACGATCGC | -0.182 E-score
41 | CGCGAAGC | -0.0589 E-score
42 | CAGTTGGC | 0.0791 E-score
43 | CCAAGTGC | -0.104 E-score
44 | ATAATGAT | -0.0811 E-score
45 | AAAGCATG | -0.0841 E-score
46 | ATTGGGGC | -0.0863 E-score
47 | CACCGGCC | 0.251 E-score
48 | AGCTTCCG | -0.242 E-score
49 | AGAAGCAT | -0.167 E-score
50 | AATCAGCA | -0.103 E-score

Row | Sequence | binding signal
51 | GCTTTCGA | -0.142 E-score
52 | AGCTGGAG | 0.0257 E-score
53 | CCCTAGCC | 0.0717 E-score
54 | AATATGCA | -0.111 E-score
55 | TAGAACCA | -0.212 E-score
56 | ATTGCTCG | -0.232 E-score
57 | GCAGTAAA | -0.206 E-score
58 | GGATACAC | 0.424 E-score
59 | CCGATGGA | -0.117 E-score
60 | GATGCTAC | -0.0375 E-score
61 | CAATGAAG | -0.153 E-score
62 | AATTTGTC | -0.171 E-score
63 | CGAACAAA | -0.0337 E-score
64 | AATTCGTG | 0.0507 E-score
65 | CAACGGCG | -0.0669 E-score
66 | AATGAGAG | -0.166 E-score
67 | ATGTTCAC | 0.00112 E-score
68 | GAAGCCTA | -0.0239 E-score
69 | GGGACCCA | 0.133 E-score
70 | TCCCTTCA | -0.1 E-score
71 | CCAGATGA | -0.0229 E-score
72 | CACGGGCA | 0.131 E-score
73 | TTGTCAAA | 0.00449 E-score
74 | TCGTATCA | 0.0533 E-score
75 | GAAATTCA | -0.0836 E-score

Row | Sequence | binding signal
76 | AAGTTTGC | -0.125 E-score
77 | ATCCTCCC | 0.103 E-score
78 | CAGCACGC | -0.00891 E-score
79 | AGTGTATG | 0.36 E-score
80 | GTGTGCAA | 0.252 E-score
81 | ATGTGTCG | 0.188 E-score
82 | CAACTAAA | -0.173 E-score
83 | GCATGGCC | -0.113 E-score
84 | AGCATGCT | -0.202 E-score
85 | ACTAGTAG | -0.116 E-score
86 | ATGTACCA | -0.186 E-score
87 | AATAGGAT | -0.104 E-score
88 | GGCACCCA | 0.0325 E-score
89 | ACCCCTCC | 0.284 E-score
90 | CTCACCGA | 0.0324 E-score
91 | AGGAGAGC | -0.0844 E-score
92 | AGACCTGG | -0.109 E-score
93 | CCGTACGC | 0.11 E-score
94 | AGAAAAGC | -0.271 E-score
95 | AAGTAGGG | 0.0659 E-score
96 | ACGTGGCG | -0.00727 E-score
97 | ATCGAGAA | -0.108 E-score
98 | AAAGGATG | -0.0679 E-score
99 | CAACTAGA | -0.0489 E-score
100 | TGGACAAA | -0.131 E-score

Row | Sequence | binding signal
101 | GCGAACAA | -0.073 E-score
102 | CCCCGGAA | 0.089 E-score
103 | CTTCCCCC | -0.0757 E-score
104 | GTTCGGTA | 0.156 E-score
105 | ATCACACG | 0.318 E-score
106 | AGAGAGGC | -0.12 E-score
107 | CTGTCCAA | -0.0628 E-score
108 | GGGTGTCA | 0.492 E-score
109 | CGGTGAAC | 0.0865 E-score
110 | CACGCACG | 0.304 E-score
111 | AACAGCGT | 0.00692 E-score
112 | CGTGCGTA | 0.0925 E-score
113 | AGGGAAAC | -0.182 E-score
114 | GTGCAACA | 0.292 E-score
115 | CAGAAACA | 0.132 E-score
116 | TAAGCGTA | -0.215 E-score
117 | ACGCTTCG | 0.0393 E-score
118 | CAAATCTG | -0.107 E-score
119 | CTTAGAAA | -0.312 E-score
120 | CGGGTAAC | 0.2 E-score
121 | ATAAGGTC | 0.0187 E-score
122 | CAGCGTAG | -0.0333 E-score
123 | AGCGTTAA | -0.11 E-score
124 | AAACAGCA | -0.237 E-score
125 | AGCGCCTA | -0.0741 E-score

Row | Sequence | binding signal
126 | TATAGAAA | -0.0952 E-score
127 | AGGGGATG | -0.0313 E-score
128 | AAAGCGAA | -0.117 E-score
129 | AGTCCCGC | -0.212 E-score
130 | ACCCACGA | 0.153 E-score
131 | ACCACCCC | 0.249 E-score
132 | GCAGACAC | 0.352 E-score
133 | ACAACTAG | -0.128 E-score
134 | GTCGCAAC | -0.121 E-score
135 | ACAGTGGG | 0.138 E-score
136 | ACGTCTCC | -0.0601 E-score
137 | AGGAAGCA | -0.0691 E-score
138 | CACCTCTA | 0.295 E-score
139 | AGGACTCA | -0.224 E-score
140 | CGAGAATC | -0.0521 E-score
141 | CCTGCCCC | -0.00641 E-score
142 | AACGATTC | -0.169 E-score
143 | TAGGCCAA | -0.316 E-score
144 | TTGCACAA | -0.133 E-score
145 | ATCATTCA | -0.202 E-score
146 | AAATAAGG | -0.107 E-score
147 | ACGTCACC | -0.0827 E-score
148 | GAACTACA | 0.225 E-score
149 | CAGTCTGG | -0.143 E-score
150 | AGCTACGG | -0.07 E-score

Row | Sequence | binding signal
151 | AAGGATCG | 0.123 E-score
152 | CGGTAAAG | 0.00359 E-score
153 | AGATGCGA | -0.0197 E-score
154 | AGGCGGTA | -0.0737 E-score
155 | AGCCTGAA | -0.129 E-score
156 | ACTGAGAG | 0.108 E-score
157 | AGCTGACC | -0.00218 E-score
158 | CCAGGAGC | -0.105 E-score
159 | ATCAAACA | 0.105 E-score
160 | AACTGGCC | -0.148 E-score
161 | GGATCCCC | 0.298 E-score
162 | TGCTGTAA | -0.14 E-score
163 | AAATCGCT | -0.26 E-score
164 | ATGGGGAA | 0.0287 E-score
165 | AGATCGCT | -0.17 E-score
166 | CGTCTTGC | 0.0347 E-score
167 | CCATACGC | 0.0455 E-score
168 | AGATTGGA | -0.201 E-score
169 | CTCGTACA | 0.17 E-score
170 | AGCGCGCC | -0.246 E-score
171 | TGCGTGAA | -0.0663 E-score
172 | AGGTACCC | 0.102 E-score
